Data taken from the supplement of paper PMC10724272.
MIC of invasive clinical C. tropicalis isolates, CLSI broth microdilution (fluconazole 0.12-256 mg/L, up to 1,024 for the azole-resistant cluster and its neighbour group; other ranges not stated); higher = less susceptible. Call: susceptible or wild type [S] / resistant or non-wild type [R] by CLSI breakpoints or cut-offs; intermediate and dose-dependent carry no call. '<=' and '>=' at the end values are inferred; the source marks only some of them. Isolates are numbered anew.

Compound: CCCCCOc1ccc(-c2cc(-c3ccc(C(=O)N[C@H]4C[C@@H](O)[C@@H](O)NC(=O)[C@@H]5[C@@H](O)[C@@H](C)CN5C(=O)[C@H]([C@H](O)CC(N)=O)NC(=O)[C@H]([C@H](O)[C@@H](O)c5ccc(O)c(OS(=O)(=O)O)c5)NC(=O)[C@@H]5C[C@@H](O)CN5C(=O)[C@H]([C@@H](C)O)NC4=O)cc3)no2)cc1 [micafungin]
Assay: CLSI broth microdilution.

Row | Test System | MIC
1 | Candida tropicalis isolate 49 (ERG11 copies: 2, Erg11p: no key change) | 0.03 mg/L [S]
2 | Candida tropicalis isolate 58 (ERG11 copies: 2, Erg11p: no key change) | 0.03 mg/L [S]
3 | Candida tropicalis isolate 264 (ERG11 copies: 2, Erg11p: no key change) | 0.03 mg/L [S]
4 | Candida tropicalis isolate 101 (ERG11 copies: 2, Erg11p: no key change) | 0.015 mg/L [S]
5 | Candida tropicalis isolate 300 (ERG11 copies: 6, Erg11p: Y132F, S154F (heterozygous)) | 0.06 mg/L [S]
6 | Candida tropicalis isolate 79 (ERG11 copies: 2, Erg11p: no key change) | 1 mg/L [R]
7 | Candida tropicalis isolate 162 (ERG11 copies: 2, Erg11p: no key change) | 0.03 mg/L [S]
8 | Candida tropicalis isolate 11 (ERG11 copies: 2, Erg11p: no key change) | 0.06 mg/L [S]
9 | Candida tropicalis isolate 238 (ERG11 copies: 2, Erg11p: Y257H (homozygous)) | 0.015 mg/L [S]
10 | Candida tropicalis isolate 227 (ERG11 copies: 2, Erg11p: no key change) | 0.06 mg/L [S]
11 | Candida tropicalis isolate 311 (ERG11 copies: 2, Erg11p: Y132F, S154F (homozygous)) | 0.03 mg/L [S]
12 | Candida tropicalis isolate 444 (ERG11 copies: 2, Erg11p: no key change) | 0.03 mg/L [S]
13 | Candida tropicalis isolate 60 (ERG11 copies: 2, Erg11p: no key change) | 0.015 mg/L [S]
14 | Candida tropicalis isolate 421 (ERG11 copies: 2, Erg11p: no key change) | 0.03 mg/L [S]
15 | Candida tropicalis isolate 290 (ERG11 copies: 2, Erg11p: no key change) | 0.03 mg/L [S]
16 | Candida tropicalis isolate 365 (ERG11 copies: 2, Erg11p: no key change) | 0.03 mg/L [S]
17 | Candida tropicalis isolate 362 (ERG11 copies: 2, Erg11p: no key change) | 0.03 mg/L [S]
18 | Candida tropicalis isolate 291 (ERG11 copies: 2, Erg11p: no key change) | 0.03 mg/L [S]

Compound: C[C@@H]1[C@H](O)[C@@H](C)/C=C/C=C/C=C/C=C/C=C/C=C/C=C/[C@H](O[C@@H]2O[C@H](C)[C@@H](O)[C@H](N)[C@@H]2O)C[C@@H]2O[C@](O)(C[C@@H](O)C[C@@H](O)[C@H](O)CC[C@@H](O)C[C@@H](O)CC(=O)O[C@H]1C)C[C@H](O)[C@H]2C(=O)O [amphotericin B]
Assay: CLSI broth microdilution.

Row | Test System | MIC
19 | Candida tropicalis isolate 326 (ERG11 copies: 4, Erg11p: Y132F, S154F (heterozygous)) | 1 mg/L [S]
20 | Candida tropicalis isolate 75 (ERG11 copies: 2, Erg11p: no key change) | 1 mg/L [S]
21 | Candida tropicalis isolate 113 (ERG11 copies: 2, Erg11p: no key change) | 0.5 mg/L [S]
22 | Candida tropicalis isolate 324 (ERG11 copies: 2, Erg11p: no key change) | 0.25 mg/L [S]
23 | Candida tropicalis isolate 125 (ERG11 copies: 7, Erg11p: Y132F, S154F (heterozygous)) | 1 mg/L [S]
24 | Candida tropicalis isolate 29 (ERG11 copies: 2, Erg11p: no key change) | 1 mg/L [S]
25 | Candida tropicalis isolate 250 (ERG11 copies: 2, Erg11p: no key change) | 1 mg/L [S]
26 | Candida tropicalis isolate 446 (ERG11 copies: 2, Erg11p: no key change) | 0.5 mg/L [S]
27 | Candida tropicalis isolate 132 (ERG11 copies: 10, Erg11p: Y132F, S154F (heterozygous)) | 1 mg/L [S]
28 | Candida tropicalis isolate 329 (ERG11 copies: 2, Erg11p: no key change) | 0.5 mg/L [S]
29 | Candida tropicalis isolate 241 (ERG11 copies: 2, Erg11p: no key change) | 1 mg/L [S]
30 | Candida tropicalis isolate 166 (ERG11 copies: 2, Erg11p: no key change) | 0.5 mg/L [S]
31 | Candida tropicalis isolate 360 (ERG11 copies: 2, Erg11p: no key change) | 1 mg/L [S]
32 | Candida tropicalis isolate 194 (ERG11 copies: 8, Erg11p: Y132F, S154F (heterozygous)) | 0.5 mg/L [S]
33 | Candida tropicalis isolate 391 (ERG11 copies: 2, Erg11p: Y132F, S154F (homozygous)) | 1 mg/L [S]
34 | Candida tropicalis isolate 170 (ERG11 copies: 2, Erg11p: Y132F, S154F (homozygous)) | 1 mg/L [S]
35 | Candida tropicalis isolate 313 (ERG11 copies: 2, Erg11p: no key change) | 1 mg/L [S]
36 | Candida tropicalis isolate 417 (ERG11 copies: 8, Erg11p: Y132F, S154F, P397S (heterozygous)) | 2 mg/L [S]

Row | Test System | MIC
37 | Candida tropicalis isolate 49 (ERG11 copies: 2, Erg11p: no key change) | 1 mg/L [S]
38 | Candida tropicalis isolate 58 (ERG11 copies: 2, Erg11p: no key change) | 0.5 mg/L [S]
39 | Candida tropicalis isolate 264 (ERG11 copies: 2, Erg11p: no key change) | 1 mg/L [S]
40 | Candida tropicalis isolate 101 (ERG11 copies: 2, Erg11p: no key change) | 0.5 mg/L [S]
41 | Candida tropicalis isolate 300 (ERG11 copies: 6, Erg11p: Y132F, S154F (heterozygous)) | 1 mg/L [S]
42 | Candida tropicalis isolate 79 (ERG11 copies: 2, Erg11p: no key change) | 2 mg/L [S]
43 | Candida tropicalis isolate 162 (ERG11 copies: 2, Erg11p: no key change) | 0.5 mg/L [S]
44 | Candida tropicalis isolate 11 (ERG11 copies: 2, Erg11p: no key change) | 1 mg/L [S]
45 | Candida tropicalis isolate 238 (ERG11 copies: 2, Erg11p: Y257H (homozygous)) | 1 mg/L [S]
46 | Candida tropicalis isolate 227 (ERG11 copies: 2, Erg11p: no key change) | 1 mg/L [S]
47 | Candida tropicalis isolate 311 (ERG11 copies: 2, Erg11p: Y132F, S154F (homozygous)) | 1 mg/L [S]
48 | Candida tropicalis isolate 444 (ERG11 copies: 2, Erg11p: no key change) | 0.5 mg/L [S]
49 | Candida tropicalis isolate 60 (ERG11 copies: 2, Erg11p: no key change) | 1 mg/L [S]
50 | Candida tropicalis isolate 421 (ERG11 copies: 2, Erg11p: no key change) | 1 mg/L [S]
51 | Candida tropicalis isolate 290 (ERG11 copies: 2, Erg11p: no key change) | 1 mg/L [S]
52 | Candida tropicalis isolate 365 (ERG11 copies: 2, Erg11p: no key change) | 0.5 mg/L [S]
53 | Candida tropicalis isolate 362 (ERG11 copies: 2, Erg11p: no key change) | 1 mg/L [S]
54 | Candida tropicalis isolate 291 (ERG11 copies: 2, Erg11p: no key change) | 1 mg/L [S]

Compound: OC(Cn1cncn1)(Cn1cncn1)c1ccc(F)cc1F [fluconazole]
Assay: CLSI broth microdilution.

Row | Test System | MIC
55 | Candida tropicalis isolate 326 (ERG11 copies: 4, Erg11p: Y132F, S154F (heterozygous)) | 128 mg/L [R]
56 | Candida tropicalis isolate 75 (ERG11 copies: 2, Erg11p: no key change) | 2 mg/L [S]
57 | Candida tropicalis isolate 113 (ERG11 copies: 2, Erg11p: no key change) | 0.5 mg/L [S]
58 | Candida tropicalis isolate 324 (ERG11 copies: 2, Erg11p: no key change) | 0.5 mg/L [S]
59 | Candida tropicalis isolate 125 (ERG11 copies: 7, Erg11p: Y132F, S154F (heterozygous)) | 512 mg/L [R]
60 | Candida tropicalis isolate 29 (ERG11 copies: 2, Erg11p: no key change) | 2 mg/L [S]
61 | Candida tropicalis isolate 250 (ERG11 copies: 2, Erg11p: no key change) | 1 mg/L [S]
62 | Candida tropicalis isolate 446 (ERG11 copies: 2, Erg11p: no key change) | 1 mg/L [S]
63 | Candida tropicalis isolate 132 (ERG11 copies: 10, Erg11p: Y132F, S154F (heterozygous)) | 512 mg/L [R]
64 | Candida tropicalis isolate 329 (ERG11 copies: 2, Erg11p: no key change) | 256 mg/L [R]
65 | Candida tropicalis isolate 241 (ERG11 copies: 2, Erg11p: no key change) | 0.25 mg/L [S]
66 | Candida tropicalis isolate 166 (ERG11 copies: 2, Erg11p: no key change) | 2 mg/L [S]
67 | Candida tropicalis isolate 360 (ERG11 copies: 2, Erg11p: no key change) | 2 mg/L [S]
68 | Candida tropicalis isolate 194 (ERG11 copies: 8, Erg11p: Y132F, S154F (heterozygous)) | 512 mg/L [R]
69 | Candida tropicalis isolate 391 (ERG11 copies: 2, Erg11p: Y132F, S154F (homozygous)) | 64 mg/L [R]
70 | Candida tropicalis isolate 170 (ERG11 copies: 2, Erg11p: Y132F, S154F (homozygous)) | > 256 mg/L [R]
71 | Candida tropicalis isolate 313 (ERG11 copies: 2, Erg11p: no key change) | 2 mg/L [S]
72 | Candida tropicalis isolate 417 (ERG11 copies: 8, Erg11p: Y132F, S154F, P397S (heterozygous)) | 512 mg/L [R]
73 | Candida tropicalis isolate 49 (ERG11 copies: 2, Erg11p: no key change) | 2 mg/L [S]
74 | Candida tropicalis isolate 58 (ERG11 copies: 2, Erg11p: no key change) | 2 mg/L [S]
75 | Candida tropicalis isolate 264 (ERG11 copies: 2, Erg11p: no key change) | 1 mg/L [S]
76 | Candida tropicalis isolate 101 (ERG11 copies: 2, Erg11p: no key change) | 0.5 mg/L [S]
77 | Candida tropicalis isolate 300 (ERG11 copies: 6, Erg11p: Y132F, S154F (heterozygous)) | 256 mg/L [R]
78 | Candida tropicalis isolate 79 (ERG11 copies: 2, Erg11p: no key change) | 1 mg/L [S]
79 | Candida tropicalis isolate 162 (ERG11 copies: 2, Erg11p: no key change) | 2 mg/L [S]
80 | Candida tropicalis isolate 11 (ERG11 copies: 2, Erg11p: no key change) | 16 mg/L [R]
81 | Candida tropicalis isolate 238 (ERG11 copies: 2, Erg11p: Y257H (homozygous)) | 8 mg/L [R]
